In PubChem BioAssay AID743279 (National Center for Advancing Translational Sciences (NCATS), 2014):
The whole screen tested about 360,000 compounds, of which about 17,000 (4.7%) were called active. This list was built around the results that the source calls inconclusive (neither active nor inactive); the mix of calls is not that of the screen. Rule as the data show it: active = activity change below about -50%; inconclusive = mostly about -30% to -49%; inactive = weaker than that.

Assay: qHTS for Inhibitors of Inflammasome Signaling: IL-1-beta AlphaLISA Primary Screen
Details: THP-1 LPS/ATP IL-1B secretion, 16 h; at 57.5 µM, stronger effect = lower value
In short: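 Secreted IL-1B measured by AlphaLISA bead assay after 16 h compound exposure of THP-1 cells; compounds (final up to 57.5 uM) added 1 h before LPS (250 ng/mL) and ATP (1.25 mM) stimulation; lower signal means less secretion.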
% is scaled to controls: 0 for no effect and ±100 for the full control effect.

Structure (SMILES) | activity change
CN(C)C1=NCCN1CCCC1CCCCC1 | inconclusive: -34.7%
Cc1cc(Cl)ccc1NC(=S)N1CCN(Cc2ccccc2)CC1 | inactive: 0%
CCCCOC(=O)c1ccc(NC(=O)CN2C(=O)NC3(CCCCCC3)C2=O)cc1 | inconclusive: -40.6%
Cc1cccc(NC(=S)NCC2CCCO2)c1 (stereo not given) | inactive: 9.07%
COc1ccc(Cn2c(-c3ccco3)nc3oc4ccccc4c(=O)c3c2=O)cc1 | inconclusive: -30.5%
CCc1ccc(C2CC(c3ccccc3)n3ncnc3N2)cc1 (stereo not given) | inactive: -14.2%
COc1ccc(CCNC(=O)c2ccc(-c3ccc([N+](=O)[O-])cc3)o2)cc1OC | inconclusive: -45.2%
CCOC1=C2CN(S(=O)(=O)c3ccc(C)cc3)[C@H](c3ccccc3)C[C@@H]2N(S(=O)(=O)c2ccccc2C)[C@H](c2ccccc2)C1 | inactive: 0%
CC1(C(=O)NCc2ccccc2)CSCC(=O)N1Cc1cccc(C(F)(F)F)c1 (stereo not given) | inactive: -24.2%
O=C(c1ccc(S(=O)(=O)c2cccc(Cl)c2)c([N+](=O)[O-])c1)N1CCN(c2ccccn2)CC1 | active: -246%
Cc1ccc(F)cc1NC(=O)N1CCNC(=O)C1CC(=O)Nc1cc(Cl)ccc1Cl (stereo not given) | inconclusive: -38.2%
CC1(C(=O)NCCOc2ccccc2Cl)CC1(Cl)Cl (stereo not given) | inactive: -9.45%
COc1ccc(C(=O)/C=C/C(=O)N(Cc2ccccc2OC)C(C(=O)NC2CCCCC2)c2ccncc2)c(O)c1 (stereo not given) | active: -77.9%
CC(C)c1nc(SCC(=O)c2ccc(F)cc2)c2ccccc2n1 | active: -57.2%
CC1(Cc2ccc(Cl)s2)C(=O)Nc2c(Cl)ccc(Cl)c21 (stereo not given) | inactive: 25.4%
CN1CCN(C(=O)CC23CC4CC(CC(C4)C2)C3)CC1 | inactive: 11%
CCCCCCCCNC(=O)/C(C#N)=C/c1ccccc1[N+](=O)[O-] | inconclusive: -49.3%
Cc1ccc2cc(C)c3nnc(SCC(=O)N4CCN(C(=O)c5ccco5)CC4)n3c2c1 | inactive: -23.2%
COc1cc(CNCc2ccco2)ccc1OCc1ccccc1 | inconclusive: -32.2%
C=CCOc1ccc(C2/C(=C(/O)c3ccc(OC)cc3)C(=O)C(=O)N2CCN2CCNCC2)cc1 (stereo not given) | inactive: -2.22%
CN(CCC#N)C(=O)COC(=O)c1ccccc1OCc1ccccc1Cl | inactive: 5.38%
Cc1ccc(N(Cc2cc3cccc(C)c3[nH]c2=O)S(=O)(=O)c2ccccc2)c(C)c1 | inconclusive: -31.2%

Structure (SMILES) | activity change
CCOC(=O)C(CC)n1cnc2c(nnn2-c2ccccc2)c1=O (stereo not given) | inactive: 27.8%
Cc1ccc(C(=O)COC(=O)C(C)N2C(=O)C3C4C=CC(C4)C3C2=O)cc1C (stereo not given) | inconclusive: -36.6%
CN1CCN(CCCNC(=S)Nc2ccc(F)c(Cl)c2)CC1 | inconclusive: -42.7%
O=c1[nH]cnc2c1c(-c1ccccc1)cn2-c1ccccc1 | inactive: -11.7%
CC1CC(C)CN(C(=O)COC(=O)c2c[nH]c3ccccc23)C1 (stereo not given) | inactive: 0.877%
CCc1ccccc1NC(=S)NC1CC2CCCC(C1)N2Cc1cccs1 (stereo not given) | inconclusive: -38.1%
O=C(Nc1ccccc1Cl)Nc1cccc2cccnc12 | inconclusive: -49%
CCOC(=O)C1=C(C)NC(=O)NC1c1ccc(OC)c(CN2CCOCC2)c1 (stereo not given) | inactive: -18.1%
COc1ccc(NC(=S)N2CCNC(=O)C2CC(=O)Nc2ccc(C)cc2)cc1 (stereo not given) | inconclusive: -49.4%
CNc1ccc(S(=O)(=O)NCC(=O)NCCCc2ccccc2)cc1[N+](=O)[O-] | inactive: -7.77%
CCCS(=O)(=O)c1c(S(=O)(=O)CCC)c2c(N)cccn2c1C(=O)c1ccc(F)cc1 | inconclusive: -44.2%
Cc1nc2sc(C(c3ccccc3)N3CCN(c4ccccc4F)CC3)c(O)n2n1 (stereo not given) | inconclusive: -30.8%
CCOC(=O)CCc1c(C)c(C#N)c2[nH]c3ccccc3n2c1=O | active: -90.1%
COC(=O)C1=C[C@@H](C(=O)OC)C2C3=C(C(=O)C24CCCCC4)[C@H](C)n2c(=O)n(-c4ccccc4)c(=O)n2[C@@H]3C1 (stereo not given in full) | inactive: -4.98%
CCOC(=O)N1CCN(C(=O)CN(c2cccc(C(F)(F)F)c2)S(=O)(=O)c2ccccc2)CC1 | inconclusive: -30.5%
CN(C(=O)Nc1cccc(C(F)(F)F)c1)C1CCCCC1 | inactive: 4.95%
CS(=O)(=O)c1ccc(Nc2nc(C(N)Cc3ccc(Cl)cc3)cs2)cc1 (stereo not given) | inconclusive: -38.4%
O=C1NCCc2c1[nH]c1ccc([N+](=O)[O-])cc21 | inconclusive: -46.2%
Cc1cccc(Oc2nc(-c3ccccn3)nc3ccccc23)c1 | active: -99.2%
c1ccc2c(c1)C1=NCCN1c1ccccc1-2 | active: -105%
CCNc1ccc(C(=O)OCC(=O)Nc2cc(C)on2)cc1[N+](=O)[O-] | inactive: 16.7%
O=C1NCCN1CCNS(=O)(=O)c1cc(C(F)(F)F)cc(C(F)(F)F)c1 | inactive: 25.3%

Structure (SMILES) | activity change
CCOC(=O)[C@H]1[C@H]2COc3ccccc3[C@@H]2N2C(=O)c3cc(Br)ccc3NC(=O)[C@@]12C | inconclusive: -40%
Cc1ccc(C2=NN(C(=O)CSc3nnnn3C)C(c3ccco3)C2)cc1 (stereo not given) | inconclusive: -34.2%
COc1cccc(CNC(=O)CSc2nnc3c(n2)[nH]c2ccc(C)cc23)c1 | inactive: 4.34%
CCOC(=O)[C@]12CCC=C1N(Cc1cccc3ccccc13)C(=O)[C@H](CC(=O)NCc1ccc(OC)c(OC)c1)C2 | inconclusive: -45.6%
COc1ccc(N2CCN(CCCNC(=O)CN3CCN(Cc4ccccc4C)C3=O)CC2)cc1 | inconclusive: -33%
O=C(Nc1cccc(-c2nnn(CC(=O)N3CCc4ccccc4C3)n2)c1)C1CCC1 | inconclusive: -36.4%
Nc1cc(CN2C(=O)c3ccccc3C2=O)cc(Cl)c1O | inconclusive: -39.4%
O=C1/C(=C/N(C(=O)c2ccco2)c2ccc(Cl)cc2)Sc2ccccc21 | inconclusive: -35.2%
O=C(NCCOc1nc(N2CCCCC2)nc(N2CCOCC2)n1)Nc1ccccc1 | inconclusive: -36.4%
NS(=O)(=O)c1ccc(CNC(=O)c2ccc(Cl)c([N+](=O)[O-])c2)cc1 | inconclusive: -41.2%
C/C=C/C(=O)N1CC2(CC(c3cccc(NC(=O)COc4ccc(Cl)cc4)c3)=NO2)C[C@@H]1C(N)=O (stereo not given in full) | inconclusive: -39.5%
Cc1nc2nc(-c3cccs3)[nH]c2cc1Br | inconclusive: -45%
Cc1cc(C)cc(NC(=O)CSc2nc(=O)n(CCCN3CCOCC3)c3c2CCCC3)c1 | active: -52.3%
CCCCNC(=O)C[C@@H]1C[C@@]2(C(=O)OC)CCCCC=C2N(Cc2ccc3c(c2)OCO3)C1=O | active: -60.7%
CC(=O)NC(=S)NNC(=O)COc1ccc(Br)cc1 | inactive: -4.3%
COCCN1CCCC(CNCc2cn(C)nc2-c2ccc(Oc3ccccc3)cc2)C1 (stereo not given) | active: -51.3%
O=C(c1cc2nc(-c3ccccc3)cc(-c3ccccc3)n2n1)N1CCCC1 | active: -66.9%
CCCCc1ccc(NC(=S)NCCc2ccc(F)cc2)cc1 | active: -110%
O=[N+]([O-])c1ccc(-c2cn3ccccc3n2)cc1 | inconclusive: -48.9%
O=C(c1cccc(S(=O)(=O)N2CCc3ccccc32)c1)N1CCN(c2ccccc2)CC1 | inconclusive: -46.2%
COc1ccc(/C=C2\N=C(c3ccccc3Cl)NC2=O)cc1 | inconclusive: -30.1%
O=C(c1ccccc1Cl)N1CCN(Cc2ccc3c(c2)OCO3)CC1 | inconclusive: -41.3%

Structure (SMILES) | activity change
CCCCSc1cnn(-c2ccccc2)c(=O)c1SCCCC | inconclusive: -33%
CC(=O)N(c1cccc(C(F)(F)F)c1)c1nc(/C=C/C(=O)O)cs1 | inactive: 63.2%
Cc1cccc(N2CCN(C(=O)c3ccc4ccccc4c3)CC2C)c1 (stereo not given) | inconclusive: -43.5%
O=C(Nc1cc(C(=O)N2CCN(c3ccccc3O)CC2)ccc1Cl)c1cccs1 | inconclusive: -45.1%
O=C(N[C@@H](Cc1ccccc1)C(=O)CCl)OCc1ccccc1 | active: -111%
CCC(Oc1ccccc1)C(=O)Nc1nc2c(s1)C(=O)CC(C)(C)C2 (stereo not given) | inconclusive: -34.8%
CCCCn1c(SCC(=O)N2c3ccccc3Sc3ccccc32)nc2c1c(=O)n(C)c(=O)n2C | inconclusive: -38%
COc1ccc(NC(=O)CC2(CC(=O)O)CCCC2)cc1 | inactive: 49.4%
O=C1NCCCc2c1oc1cc(Br)c(O)c(Br)c21 | inconclusive: -36.5%
CCc1c(C)nc2cc(-c3ccc(OC)c(OC)c3)nn2c1N1CCCC1 | inconclusive: -30.9%
Cc1ccc(C)c(N2CCN(S(=O)(=O)c3cc4c(cc3C)NC(=O)CO4)CC2)c1 | inactive: -0.275%
COc1ccc(/C=C(\C#N)C(=O)NCc2cccs2)cc1OC | inconclusive: -34.4%
O=C(O)c1cc2nc(-c3cccs3)cc(C(F)(F)F)n2n1 | inactive: 14.9%
O=C(CCN1C(=O)/C(=C\C=C\c2ccccc2)SC1=S)Nc1cccc(C(=O)O)c1 | inconclusive: -36.9%
CC(C)C(=O)N1CCCC1(C)C(=O)Nc1ccccc1 (stereo not given) | inactive: 24%
COc1cc(/C=N/Nc2cccc3cccnc23)cc(OC)c1O | inconclusive: -44.4%
O=C(Nc1ccncc1)C1CCN(S(=O)(=O)c2ccc(Cl)c(C(F)(F)F)c2)CC1 | inconclusive: -30.8%
COc1ccc(C2CC(c3cccs3)=NN2C(=O)CSc2nncn2C)cc1OC (stereo not given) | inconclusive: -40.2%
Cc1ccc(C(=O)NCCn2ccc3ccccc32)cc1[N+](=O)[O-] | inconclusive: -42.6%
